The values that follow come from PubChem BioAssay AID1963576 (National Center for Advancing Translational Sciences (NCATS), 2024).

Each structure is given as a SMILES string. In all, about 46,000 compounds went through this assay and about 60 (0.1%) were called active. Not shown: some 3% with an inconclusive outcome. Calls follow the shape of the dose curve; as a rule, active = well fitted inhibition curve with a large enough effect; inconclusive = small, poorly fitted or top-dose-only effect; inactive = no such curve, though single readings can be large or run the other way. This is one part of the list.

This assay in a line: Primary qHTS assay for Inhibitors of ovarian cancer metastasis using an organotypic tumor microenvironment (TME) model. Also: nearly all actives have a fitted effect of over 65% in size.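 As to activity change, negative = inhibition: plate controls were DMSO wells for no effect and tomatine positive control wells for full effect.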 Conditions: SKOV3ip1-GFP adhesion/invasion on 3D omental model, fluorescence; series mostly up to 45.8 µM; activity change, negative = inhibition: at the top concentration. A digest of the protocol:
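qHTS, 4-pt dose (0.36-46 umol/L); SKOV3ip1-GFP, 1,200 cells/well, no FBS; primary omental fibroblast/mesothelial co-culture 48 h pre-grown; 2 h RT + 16 h 37 C; PBS wash, 4% PFA; GFP count 488/509 nm.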
In general terms: Quantitative high-throughput screening tests each substance at several concentrations.
Consider `CCOC(=O)CNC(=O)Cn1nc(N2CCN(c3ccccc3)CC2)ccc1=O`, for which the compound was classed as inactive.
In the case of `CC(=O)c1cccc(NC(=O)c2cc(-c3ccc4c(c3)OCCO4)on2)c1`, the call was inactive.
For the compound `CCOc1ccccc1CNC(=O)CN1C(=O)C2CCCCN2c2ccc(C(=O)N(C)C)cc21` (centres undefined), the “activity change, negative = inhibition” value is inactive: -2.55%.
Regarding `COC(=O)c1ccccc1NC(=O)CCCS(=O)(=O)c1nc(-c2ccccc2OC)cc(C(F)(F)F)n1`, the “activity change, negative = inhibition” value was inactive: 1.43%.
Still for that read-out and setting: the value for `CCc1ccc(CNC(=O)c2sc3ncnc(N(C)C4CCCCC4)c3c2C)cc1` was inactive: -10.2%.
On to `COc1ccc(-c2cc(-c3ccc(F)cc3)nc3c2COc2ccccc2-3)cc1`, for which the “activity change, negative = inhibition” value was inactive: 1.99%.
Take `CCc1ccccc1NC(=O)c1ccc2[nH]c(C)c(C)c2c1`: the outcome was inactive.
With `Cc1nn(C)c2c1c(C(F)(F)F)cc(=O)n2CC(=O)NC(C)(C)C`, the “activity change, negative = inhibition” value is inactive: 7.4%.
For `CCOc1ccc(OCC)c(NC(=O)c2c(C)nn(-c3ccccc3)c2-n2cccc2)c1`, the outcome was inactive.
On to `COc1ccc(CCCc2nnc(SCC(=O)Nc3ccc(Cl)cc3)o2)cc1`, for which the “activity change, negative = inhibition” value was inactive: 0.458%.
As for `Cc1ccccc1CN1C(=O)C(O)(CC(=O)c2cccc(Br)c2)c2ccccc21` (centres undefined), the result was inactive.
Still for that read-out and setting: the result for `Cc1c(C(=O)NCc2ccccc2)oc2c1-c1[nH]ncc1CC2` reads “inactive”.
On to `CCOc1ccccc1C1Nc2ccccc2-c2nnc(SCc3ccccc3)nc2O1` (centres undefined), for which the “activity change, negative = inhibition” value was inactive: -3.98%.
Consider `COCCCn1c(=N)c(C(=O)NC2CCCC2)cc2c(=O)n3cc(C)ccc3nc21`, for which the result was inactive.
Regarding `Cc1cccc(C(=O)Nc2nnc(S(=O)(=O)N3c4ccccc4CC3C)s2)c1` (centres undefined), the “activity change, negative = inhibition” value is inactive: -8.21%.
Same read-out and setting: the result for `Cc1cc(O)c(CN2CCN(c3ccc(F)cc3)CC2)c2oc(=O)cc(C)c12` reads inactive: -1.12%; that for `COc1ccc(Br)cc1CNC(=O)c1ccc(-n2c(C)cc3c2CCC(C)C3)cc1` (centres undefined), inactive: -3.66%.
Take `CCCN(C(=O)Cn1nc(Cc2ccncc2)c2ccccc2c1=O)c1ccccc1C`: the result was inactive.
With `CCOc1ccc(-c2nnc(SCC(=O)NCCc3ccccc3)nc2-c2ccc(OCC)c(OC)c2)cc1OC`, the “activity change, negative = inhibition” value is inactive: 0.725%.
The same measure, in the same setting: the result for `Cn1c(CN2CCCCC2)nc2cc(NC(=O)c3ccc(Cl)cc3)ccc21` reads inactive: 4.12%.
`O=C(Cc1ccc(F)cc1)NCCc1csc(-c2ccc(C(F)(F)F)cc2)n1`: the outcome was inactive.
For `Cc1ccc2[nH]c3c(=O)n(CC(=O)N(C)Cc4ccccc4)ncc3c2c1`, the “activity change, negative = inhibition” value is inactive: 1.88%.
For `CCOC(=O)c1cnc(NCc2ccc(Cl)cc2)c2ccccc12`, the “activity change, negative = inhibition” value is inactive: -4.38%.
With `O=C(O)CCc1ccc(-c2ccc(Cl)cc2)n1-c1cccc(C(F)(F)F)c1`, the call was inactive.
Consider `CCOc1ccc(CCNC(=O)c2nn(-c3ccc(OC)cc3)c(=O)c3c2c2ccccc2n3C)cc1OCC`, for which the “activity change, negative = inhibition” value is inactive: 1.36%.
Same read-out and setting: the result for `CCn1c(=O)cc(OCC(=O)Nc2ccccc2Cl)c2ccccc21` reads inactive: 1.99%; that for `Cc1cnc(Nc2ccc(N3CCN(C)CC3)cc2)nc1Nc1cccc(S(=O)(=O)NC(C)(C)C)c1`, inactive: -28.9%; that for `CCN(CC)C(=O)c1ccccc1NC(=O)c1cccc(S(=O)(=O)N2CCC(C)CC2)c1`, inactive: 4.55%.
Turning to `O=C(NC1CCCCC1)/C(=C/c1ccc(Cl)cc1)NC(=O)c1ccccc1`, the “activity change, negative = inhibition” value was inactive: -13.5%.
As to `CCOC(=O)C1CCCN(S(=O)(=O)c2cc(-c3cc(C)no3)ccc2C)C1` (centres undefined), the outcome was inactive.
Consider `Cc1cccc(N(C)c2nc3ccc(C)cc3n3nnnc23)c1`, for which the “activity change, negative = inhibition” value was inactive: -6.79%.
Still for that read-out and setting: the result for `Cc1ccc(CNC(=O)C2CCN(c3ncnc4c3nc3n4CCCCC3)CC2)cc1` reads inactive: -0.773%; that for `Cc1ccc(NC(CNS(=O)(=O)c2ccc(Cl)cc2)c2ccccc2)cc1` (centres undefined), inactive: -8.28%; that for `N#Cc1cc2c(=O)n3ccccc3nc2n(-c2nnc(SCc3ccccc3)s2)c1=O`, inactive: 2.71%.
Same read-out and setting: the value for `Cc1ccc(C(=O)CSc2nnc3ccc4ccccc4n23)cc1` was inactive: -7.46%.
Regarding `COc1cccc(CNC(=O)c2ccc(CS(=O)Cc3ccc(Cl)cc3)o2)c1` (centres undefined), the “activity change, negative = inhibition” value is inactive: 2.82%.
The same measure, in the same setting: the value for `O=c1oc2ccc3ccccc3c2cc1-c1nnc(Nc2cccc(F)c2)s1` was inactive: 1.1%.
`O=C(CCCn1c(=O)c2cccn2c2cccnc21)Nc1ccccc1Br`: the call was inactive.
With `Cc1ccccc1CNC(=O)c1ccc2c(c1)N(Cc1ccccc1)CCS2`, the “activity change, negative = inhibition” value is inactive: -5.12%.
Still for that read-out and setting: the value for `Cc1cccc(C)c1Nc1c(-c2ccccc2O)nc2ncccn12` was inactive: -2.05%; that for `Cc1ccc(CNC(=O)Cn2cc(C(=O)c3ccc(Cl)cc3)c(=O)c3ccc(C)nc32)cc1` was inactive: -8.28%; that for `CCCCn1c(=O)c2oc3ccccc3c2n(CC(=O)Nc2ccccc2OC)c1=O` was inactive: 0.247%.
The same measure, in the same setting: the result for `CCOC(=O)c1c(NC(=O)/C=C/c2ccc(OCC)cc2)sc2c1CCC2` reads inactive: 1.57%; that for `Oc1ccc(C=Cc2cc(O)cc(O)c2)cc1`, inactive: 1.64%.
With `CCN1CCOC(=O)C1CC(=O)Nc1cc(Cl)ccc1OC` (centres undefined), the compound was classed as inactive.
As to `CNc1oc(/C=C/c2cc(OC)c(OC)c(OC)c2)nc1C#N`, the “activity change, negative = inhibition” value was inactive: 6.98%.
On the same count and under the same terms, the value for `Cc1ccc(Cl)cc1-n1ncc2c(N3CCC(C(N)=O)CC3)ncnc21` was inactive: 2.96%; that for `Cc1cccc(OCCCCn2c(C3CC(=O)N(c4ccc(C)cc4C)C3)nc3ccccc32)c1` (centres undefined) was inactive: -19.2%.
In the case of `O=C(CCn1c(=O)c2cccn2c2cccnc21)N1CCN(c2ccc(Cl)cc2)CC1`, the “activity change, negative = inhibition” value is inactive: 4.89%.
